Measured values taken from the supplement of paper PMC4967469.
The IC50 comes from the fitted curve, where viability falls to half of the control; where the fit passes the top or lowest dose, that dose stands as a limit. AUC sums up the same curve from the lowest dose to the 256-fold higher top dose; the more sensitive the line, the further below 1. The top dose, if marked as inferred, is not printed in the source and was worked back from the curve model.

Compound: CCCCCCCCCCCC1=C(O)C(=O)C=C(O)C1=O [Embelin]
Experiment: Viability of human cancer cell lines after 72 h of drug (GDSC screen)
Conditions: top dose 32 µM; top dose inferred
Experimental: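 Human cancer cell lines in 384-well plates, medium with 10% serum, drug for 72 h over a 256-fold dose range (nine 2-fold or five 4-fold steps up to the top dose). Adherent lines were fixed and stained with the nucleic acid dye Syto60, suspension lines read with resazurin; signal relative to control wells, capped at 0 and 100%. One two-parameter sigmoid per drug and line, fitted in a mixed model over all curves with the slope shared within a line.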

Row | Cell Line | AUC | IC50
1 | EW-24 (Ewing sarcoma, semi-adherent) | 0.917 | > 32 µM
2 | PA-TU-8902 (pancreas, adherent) | 0.778 | 15.2 µM
3 | SK-MEL-2 (melanoma, adherent) | 0.786 | 14.3 µM
4 | SK-MEL-1 (melanoma, suspension) | 0.938 | > 32 µM
5 | SNU-C2B (large intestine, adherent) | 0.916 | > 32 µM
6 | SiHa (cervix, adherent) | 0.915 | > 32 µM
7 | SW156 (kidney, adherent) | 0.76 | 12.4 µM
8 | BEN (non-small cell lung carcinoma, adherent) | 0.883 | > 32 µM
9 | NCI-H1694 (small cell lung carcinoma, suspension) | 0.93 | > 32 µM
10 | CAL-51 (breast, adherent) | 0.653 | 4.98 µM
11 | SK-UT-1 (soft tissue, adherent) | 0.656 | 5.19 µM
12 | CAL-12T (non-small cell lung carcinoma, adherent) | 0.753 | 11.8 µM
13 | NB7 (neuroblastoma, adherent) | 0.784 | 14.3 µM
14 | BT-20 (breast, adherent) | 0.782 | 16.8 µM
15 | P30-OHK (lymphoblastic leukaemia, suspension) | 0.663 | 5.22 µM
16 | NCI-H1155 (large cell lung carcinoma, suspension) | 0.949 | > 32 µM
17 | J82 (bladder, adherent) | 0.675 | 6.15 µM
18 | SUP-B15 (lymphoblastic leukaemia, suspension) | 0.625 | 4.36 µM
19 | RC-K8 (B-cell lymphoma, suspension) | 0.89 | 28.3 µM
20 | T98G (glioma, adherent) | 0.814 | 15.8 µM

Row | Cell Line | AUC | IC50
21 | D-283MED (medulloblastoma, adherent) | 0.813 | 15.4 µM
22 | COLO-829 (melanoma, adherent) | 0.64 | 5.86 µM
23 | BxPC-3 (pancreas, adherent) | 0.704 | 8.15 µM
24 | JVM-2 (lymphoid neoplasm, suspension) | 0.977 | > 32 µM
25 | SJSA-1 (bone, adherent) | 0.629 | 4.76 µM
26 | EBC-1 (lung squamous cell carcinoma, adherent) | 0.714 | 8.78 µM
27 | LOU-NH91 (lung squamous cell carcinoma, adherent) | 0.814 | 19.4 µM
28 | SUIT-2 (pancreas, adherent) | 0.723 | 8.93 µM
29 | NCI-H1781 (lung adenocarcinoma, adherent) | 0.85 | 24.2 µM
30 | NUGC-3 (stomach, adherent) | 0.75 | 11.6 µM
31 | SF295 (glioma, adherent) | 0.594 | 3.71 µM
32 | NB(TU)1-10 (neuroblastoma, adherent) | 0.796 | 12.8 µM
33 | ETK-1 (biliary tract, adherent) | 0.735 | 10.4 µM
34 | DAN-G (pancreas, adherent) | 0.859 | 21.3 µM
35 | NCI-H446 (small cell lung carcinoma, semi-adherent) | 0.946 | > 32 µM
36 | NCI-H847 (small cell lung carcinoma, adherent) | 0.694 | 6.21 µM
37 | SBC-1 (small cell lung carcinoma, suspension) | 0.895 | > 32 µM
38 | COLO-684 (endometrium, suspension) | 0.841 | 26.4 µM
39 | GDM-1 (acute myeloid leukaemia, suspension) | 0.874 | 28.9 µM
40 | COLO-824 (breast, adherent) | 0.864 | 28.9 µM
